Measured values from patent US7592316B2, “Peptides as NS3-serine protease inhibitors of hepatitis C virus” (Schering Corporation, priority 2000, dated 2009).

target: HCV NS3/NS4A protease (strain 1a) (Hepatitis C virus genotype 1a, UniProt P27958); test: biochemical; conditions: Table 5; HCV NS3/NS4A protease, 30° C., pH 6.5; read-out: Ki* Range

| Ki [nM] | Compound |
| --- | --- |
| 1 to 100 | C=CCCC(NC(=O)[C@@H]1C2C(CN1C(=O)[C@@H](NC(=O)NC(C)(C)C)C1CCCCC1)C2(C)C)C(=O)C(=O)NCCS(C)(=O)=O (some centres unmarked) |
| 101 to 1000 | C=CCCC(NC(=O)[C@@H]1[C@H]2[C@@H](CN1C(=O)[C@@H](NC(=O)NCC=C)C1Cc3ccccc3C1)C2(C)C)C(=O)C(=O)NCC=C (some centres unmarked) |
| 1 to 100 | C=CCCC(NC(=O)[C@@H]1C2C(CN1C(=O)[C@@H](NC(=O)NC(C)(C)C)C1CCCCC1)C2(Cl)Cl)C(=O)C(=O)NCCC(=O)OC(C)(C)C (some centres unmarked) |
| 101 to 1000 | C=CCCC(NC(=O)[C@@H]1[C@H]2[C@@H](CN1C(=O)[C@@H](NC(=O)NC(C)(C)CC(C)(C)C)C1Cc3ccccc3C1)C2(C)C)C(=O)C(=O)NCC=C (some centres unmarked) |

same assay, conditions: Table 5; HCV NS3/NS4A protease, spectrophotometric assay, 30° C., pH 6.5; read-out: Ki* Range

| Compound | Ki [nM] |
| --- | --- |
| C=CCNC(=O)C(=O)C(CCC)NC(=O)[C@@H]1[C@H]2[C@@H](CN1C(=O)[C@@H](NC(=O)CC(C)(C)C)C1Cc3ccccc3C1)C2(C)C (some centres unmarked) | > 1000 |
| C=CCNC(=O)C(=O)C(Cc1ccccc1)NC(=O)[C@@H]1[C@H]2[C@@H](CN1C(=O)[C@@H](NC(=O)OC(C)(C)C)C(C)(C)C)C2(C)C (some centres unmarked) | > 1000 |
| C=CCNC(=O)C(=O)C(CCc1ccccc1)NC(=O)C1[C@H]2[C@@H](CN1C(=O)C(NC(=O)OC(C)(C)C)C1CCC(F)(F)CC1)C2(C)C (some centres unmarked) | 101 to 1000 |
| CCCC(NC(=O)[C@@H]1[C@@H]2[C@H](CN1C(=O)[C@@H](NC(=O)OC(C)(C)C)C(C)(C)C)C2(C)C)C(=O)C(=O)NCC(F)(F)F (some centres unmarked) | > 1000 |
| C=CCNC(=O)C(=O)C(CCC)NC(=O)[C@@H]1C2C(CN1C(=O)[C@@H](NC(=O)NC(C)(C)C)C1Cc3ccccc3C1)C2(C)C (some centres unmarked) | 101 to 1000 |
| CCCC(NC(=O)C1(C)CC(C)(C)CN1C(=O)[C@H](NC(=O)OC(C)(C)C)C1CCCCC1)C(=O)C(=O)NCC(=O)N[C@H](C(=O)N(C)C)c1ccccc1 (some centres unmarked) | > 1000 |
| C=CCNC(=O)C(=O)C(CCC)NC(=O)[C@@H]1[C@@H](OC(C)(C)C)CCN1C(=O)[C@@H](NC(=O)OC(C)(C)C)C(C)(C)C (some centres unmarked) | > 1000 |
| CCCC(NC(=O)[C@@H]1[C@H]2[C@@H](CN1C(=O)[C@@H](NC(=O)O[C@@H](C)C(C)C)C1Cc3ccccc3C1)C2(C)C)C(=O)C(=O)NCC(=O)N[C@H](C(=O)N(C)C)c1ccccc1 (stereo partly drawn) ({Isobutoxycarbonyl(1S-Me)}-[Igl][Pro(3S,4R-CMe2)][X2]G[Phg]-NMe2) | 1 to 100 |

Other lines, results leading:

| Ki [nM] | Compound |
| --- | --- |
| 101 to 1000 | C=CCNC(=O)C(=O)C(CCC)NC(=O)[C@@H]1[C@H]2[C@@H](CN1C(=O)[C@@H](NC(=O)OCC(C)(C)C)C1CCCC1)C2(C)C (some centres unmarked) |
| 1 to 100 | CC(C)(C)NC(=O)N[C@H](C(=O)N1CC2C([C@H]1C(=O)NC(CC1CCC1)C(=O)C(N)=O)C2(C)C)C1CCCCC1 (some centres unmarked) |
| 1 to 100 | CC(C)NC(=O)N[C@H](C(=O)N1C[C@H]2[C@@H]([C@H]1C(=O)NC(CC1CC1)C(=O)C(N)=O)C2(C)C)C1CCCCC1 (some centres unmarked) |
| > 1000 | COC(=O)C(=O)C(CC1CC1)NC(=O)[C@@H]1[C@@H]2[C@H](CN1C(=O)[C@@H](NC(=O)OC(C)(C)C)C1CCCC1)C2(C)C (some centres unmarked) |

same assay, conditions: Table 6; HCV NS3/NS4A protease, 30° C., pH 6.5; read-out: Ki*

| Compound | Ki [nM] |
| --- | --- |
| CCCC(NC(=O)[C@@H]1[C@@H]2[C@H](CN1C(=O)[C@@H](NC(=O)OC(C)(C)C)C1CCCCC1)C2(C)C)C(=O)C(=O)N[C@H](CC(=O)N(C)C)c1ccccc1 (some centres unmarked) | > 1000 |
| CN(C)C(=O)[C@@H](NC(=O)CNC(=O)C(=O)C(CC1CCC1)NC(=O)[C@@H]1[C@@H]2[C@H](CN1C(=O)[C@@H](NC(=O)OC(C)(C)C)C1CCCCC1)C2(Cl)Cl)c1ccccc1 (stereo partly drawn) (Boc-[Chg][Pro(3S,4R-CCl2)][X32]G[Phg]-NMe2) | 1 to 100 |
| CCCCC(NC(=O)[C@@H]1[C@@H]2[C@H](CN1C(=O)[C@@H](NC(=O)NC(C)(C)C)C(C)(C)C)C2(C)C)C(=O)C(=O)NCCS(=O)(=O)N(C)C (some centres unmarked) | 101 to 1000 |
| CN(C)C(=O)[C@@H](NC(=O)CNC(=O)C(=O)C(CC1CC1)NC(=O)[C@@H]1[C@@H]2[C@H](CN1C(=O)[C@@H](NC(=O)OC(C)(C)C(F)(F)F)C1CCCCC1)C2(C)C)c1ccccc1 (stereo partly drawn) ({CF3C(Me)2OCO}-[Chg][Pro(3R,4S-CMe2)][X8]G[Phg]-NMe2) | 1 to 100 |

The remaining lines, values ahead:

| Ki [nM] | Compound |
| --- | --- |
| 101 to 1000 | CC(NC(=O)N[C@H](C(=O)N1C[C@H]2[C@@H]([C@H]1C(=O)NC(CC1CC1)C(=O)C(N)=O)C2(C)C)C(C)(C)C)C(F)(F)F (some centres unmarked) |
| 1 to 100 | CC(C)(C)OC(=O)N[C@H](C(=O)N1C[C@H]2[C@@H]([C@H]1C(=O)NC(CC1CC1)C(=O)C(=O)NCC(=O)NCc1ccccc1)C2(C)C)C1CCCC1 (some centres unmarked) |
| 1 to 100 | C=CCCC(NC(=O)[C@@H]1[C@@H]2[C@H](CN1C(=O)[C@@H](NC(=O)OC(C)(C)C)C1CCCCC1)C2(C)C)C(=O)C(=O)NCCS(=O)(=O)N(C)C(C)(C)C (some centres unmarked) |

*1 amine or outer side, *2 acyl side, *3 side chain or, on linkers, in order; H or OH if unused. Where a SMILES comes first, the peptide text is derived from it. [ ]: non-standard residue; d: D form. The star is where a group is joined. Pro(3R,4S-CMe2) = CC1(C)[C@@H]2[C@@H](C(=O)O)NC[C@@H]21; Pro(3S,4R-CCl2) = O=C(O)[C@H]1NC[C@H]2[C@@H]1C2(Cl)Cl; Pro(3S,4R-CMe2) = CC1(C)[C@H]2[C@@H](C(=O)O)NC[C@H]21; Isobutoxycarbonyl(1S-Me) = CC(C)[C@H](C)OC(=O)*; CF3C(Me)2OCO = CC(C)(OC(=O)*)C(F)(F)F; X32 = O=C(C(=O)[*:2])C(CC1CCC1)N[*:1]; X8 = O=C(C(=O)[*:2])C(CC1CC1)N[*:1]; Igl = N[C@H](C(=O)O)C1Cc2ccccc2C1; X2 = CCCC(N[*:1])C(=O)C(=O)[*:2]; Chg = N[C@H](C(=O)O)C1CCCCC1; Phg = N[C@H](C(=O)O)c1ccccc1; Boc = CC(C)(C)OC(=O)*
